“And” between values parts separate entries of the source, which are not always exact repeats. Equal entries are not always repeated. This list was built around the results that the source calls inconclusive (neither active nor inactive); the mix of calls is not that of the screen. A potency beside an inconclusive call is a rough fit, not a confirmed value. Some structures have more than one record in an assay (separate samples or runs), and their calls can disagree. The source made the active and inactive calls. The call rests on the fitted dose curve; in most records, active means well fitted cell-killing curve with a large enough effect in the repeat runs; inconclusive means weak or mixed curves; inactive means no such curve, though single readings can be large or run the other way.
assay: qHTS assay for identifying genotoxic compounds that show differential cytotoxicity against isogenic chicken DT40 cell lines with known DNA damage response pathways - Rad54/Ku70 mutant cell line (AID 743015); settings: DT40 Rad54/Ku70 mutant viability, CellTiter-Glo, 40 h; activity change, negative = cytotoxicity: at 66.8 µM (top of the series) unless noted; further: nearly all actives have a fitted effect of over 60% in size
From the text: National Center for Advancing Translational Sciences [NCATS]
NIH Chemical Genomics Center [NCGC]
U.S. Environmental Protection Agency [EPA]
National Institutes of Environmental Health Sciences [NIEHS]
National Toxicology Program [NTP]
U.S. Food and Drug Administration [FDA]
DNA repair pathways play a critical role in cellular homeostasis by repairing DNA damage induced by endogenous processes and xenobiotics. Isogenic chicken DT40 cell lines deficient in different DNA repair pathways can be used to identify genotoxic compounds and aid in characterizing the nature of the DNA damage induced. Two DNA repair-deficient cell lines with disrupted genes, Rad54/Ku70 or Rev3, were used to screen the Tox21 10K compound library. Possible genotoxicity was based on the presence of a significant increase in cytotoxicity in one or more of the DNA repair-deficient cell lines compared to that observed in the parental DNA repair-proficient cell line. CellTiter Glo viability assay (Promega, Madison, WI) was used to measure cell viability in these cells after compound treatment. This assay includes the data from the Rad54/Ku70 mutant cell line.
Tox21 Assay Protocol Summary:
300 DT40 mutant cells in 5 uL/well were dispensed into white, solid-bottom 1536-well plates using a Multidrop Combi (ThermoFisher Scientific, Waltham, MA) dispenser. After the assay plates were incubated at 37 C/5% CO2 for approximately 0.5 hour, 23 nL of compounds dissolved in DMSO, positive controls or DMSO only was transferred into the assay plate by a pintool work station (Kalypsys, San Diego, CA). The assay plates were incubated at 37 C/5% CO2 for 40 hours. After 5 uL per well of CellTiter-Glo reagent was added into each well of the assay plates, the plates were incubated for 30 min at room temperature and the luminescence intensity of the plates was measured using a ViewLux (PerkinElmer, Shelton, CT) plate reader.
On the % scale 0 is the no-effect control and ±100 the full control effect; potency means the concentration at half of the fitted maximal effect; tags describe the fitted curve by direction and shape.

Row | SMILES | Potency | activity change, negative = cytotoxicity
1 | CC(Cc1ccccc1)NCCn1cnc2c1c(=O)n(C)c(=O)n2C (stereo not given) | inconclusive: 67.7 µM [cytotoxic] | –
2 | CCN(CC)C1CCCCC1 | inconclusive: 61.1 µM [cytotoxic, single point] | –
3 | OC(c1ccc(F)cc1)(c1cncnc1)c1ccccc1Cl (stereo not given) | active: 61.1 µM | –
4 | CCCCCCCCC(=O)NCc1ccc(O)c(OC)c1 | inconclusive: 68.6 µM [cytotoxic, single point] | –
5 | CCOP(=O)(OCC)Oc1cc(C)nc(C(C)C)n1 | – | inactive: -0.381% [at 95.1 µM]
6 | COP(=S)(OC)Oc1ccc(Sc2ccc(OP(=S)(OC)OC)cc2)cc1 | inconclusive: 33.5 µM [cytotoxic, single point] and inconclusive: 68.6 µM [cytotoxic, single point] | –
7 | CC1(C)[C@H](C=C(Cl)Cl)[C@@H]1C(=O)O[C@@H](C#N)c1cccc(Oc2ccccc2)c1 | inconclusive: 30.6 µM [cytotoxic, partial curve, poor fit] | –
8 | C=CCO | inactive | –
9 | N#Cc1cc(I)c(O)c(I)c1 | inconclusive: 61.1 µM [cytotoxic, partial curve, poor fit] | –
10 | O=C(Nc1ccccc1)Nc1cnns1 | active: 30.6 µM | –
11 | N#CS | inconclusive: 61.3 µM [cytotoxic, partial curve, poor fit] | –
12 | Nc1ccc(-c2ccc(N)cc2)cc1 | inconclusive: 67.8 µM [cytotoxic, single point] and inconclusive: 34.1 µM [cytotoxic, single point] and inconclusive: 77 µM [cytotoxic, single point] | –
13 | COC(C)(C)CCCC(C)C/C=C/C(C)=C/C(=O)OC(C)C (stereo not given) | inconclusive: 33.5 µM [cytotoxic, single point] | –
14 | C=CCc1ccc(OC)cc1 | inconclusive: 66.5 µM [cytotoxic, single point] | –
15 | c1cc2c3c(cccc3c1)CC2 | inactive and active: 61.1 µM | –
16 | CO[C@@H]1[C@H](OC(=O)NC(=O)CCl)CC[C@]2(CO2)[C@H]1[C@@]1(C)O[C@@H]1CC=C(C)C | – | inconclusive: -103% [at 30.7 µM]
17 | N#CC(Br)Br | inactive | –
18 | O=C(O)C(Cl)(Cl)Cl | inconclusive: 68.6 µM [cytotoxic, single point] | –
19 | CCOP(=S)(OCC)Oc1cc(C)nc(N(CC)CC)n1 | active: 27.3 µM | –
20 | NCCc1cc(O)c(O)cc1O | inconclusive: 29.8 µM [cytotoxic, single point] | –

Row | SMILES | Potency | activity change, negative = cytotoxicity
21 | CCC(C)(CC)c1cc(NC(=O)c2c(OC)cccc2OC)on1 | inconclusive: 68.8 µM [cytotoxic, single point] | –
22 | CS/C(C)=N/OC(=O)N(C)SN(C)C(=O)O/N=C(\C)SC | active: 15.4 µM | –
23 | Cc1cc(C)nc(Nc2ccccc2)n1 | inconclusive: 68.6 µM [cytotoxic, single point] | –
24 | CCCCN(CCCC)C(=S)S | inconclusive: 24.3 µM [cytotoxic, single point] | –
25 | CCC(=O)C(CC(C)N(C)C)(c1ccccc1)c1ccccc1 (stereo not given) | inconclusive: 68.1 µM [cytotoxic, single point] | –
26 | O=C1CN=C(c2ccccc2)c2cc(Cl)ccc2N1CC1CC1 | inconclusive: 64.2 µM [cytotoxic, single point] | –
27 | CCN(CC)C(=O)C(C)Oc1cccc2ccccc12 (stereo not given) | inconclusive: 69.1 µM [cytotoxic, single point] | –
28 | CN/C(=N\[N+](=O)[O-])NCc1cnc(Cl)s1 | – | inactive: 17.7%
29 | O=C(O)c1ccccc1C(=O)Nc1cccc2ccccc12 | inconclusive: 68.6 µM [cytotoxic, single point] | –
30 | CCC(=O)Nc1ccc(Cl)c(Cl)c1 | inconclusive: 68.6 µM [cytotoxic, single point] | –
31 | CCCOC(=O)c1ccccc1C(=O)OCCC | inconclusive: 78.1 µM [cytotoxic, partial curve, poor fit] | –
32 | CC(O)CCO (stereo not given) | inconclusive: 68.6 µM [cytotoxic, single point] | –
33 | Oc1ccccc1-c1ccccc1 | inconclusive: 61.1 µM [cytotoxic, single point] | –
34 | COP(=S)(OC)SCn1nnc2ccccc2c1=O | active: 60 µM and active: 61.1 µM | –
35 | NC(=O)CI | inconclusive: 69.1 µM [cytotoxic, single point] | –
36 | CC(=O)CCc1ccc2c(c1)OCO2 | – | inactive: -2.32%
37 | CN(C)[C@@H]1C(=O)C(C(N)=O)=C(O)[C@@]2(O)C(=O)C3=C(O)c4c(O)cccc4[C@@](C)(O)[C@H]3[C@H](O)[C@@H]12 | inconclusive: 68.5 µM [cytotoxic, single point] and inconclusive: 66.9 µM [cytotoxic, single point] | –
38 | CNC(=O)O/N=C(\SC)C(=O)N(C)C | inconclusive: 74.8 µM [cytotoxic, single point] and active: 54.4 µM | –
39 | COP(=S)(OC)SCN1C(=O)c2ccccc2C1=O | inconclusive: 69.1 µM [cytotoxic, single point] and inconclusive: 68.6 µM [cytotoxic, single point] | –
40 | O=C(OC1CCCCC1)c1ccccc1C(=O)OC1CCCCC1 | active: 25.7 µM | –
